Several values for one entry are separate records, joined by “and”; a condition that tells them apart may be missing. Equal entries are not always repeated. The inconclusive results got no clear call from the source; some entries with a clear call stand among them for comparison. For some assays here: A potency beside an inconclusive call is a rough fit, not a confirmed value. Activity calls are given as the source filed them. Unless noted, the call rests on the fitted dose curve; in most records, active means well fitted curve in the direction sought with a large enough effect; inconclusive means small, poorly fitted or top-dose-only effect, or another doubt; inactive means no such curve, though single readings can be large; an effect the other way counts as inactive or inconclusive. Square brackets hold non-standard residues; d marks the D form. Peptide text beside a SMILES is read from it.
Experiments:
[1] = test system: Zika virus NS2B-NS3 protease; assay: Primary screen GU AMC qHTS for Zika virus inhibitors (AID 1347154); further: nearly all actives have a fitted effect of over 70% in size; further: potency means the concentration at half of the fitted maximal effect;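 on activity change, negative = inhibition: 0% = no-inhibitor control and -100% = no-enzyme control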
Summary of the method: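 Unlinked Zika NS2B hydrophilic domain/NS3 protease domain noncovalent complex (25 nM final) in 10 mM Tris-HCl pH 8.0, 0.01% Tween 20, with AMC peptide substrate. Fluorescence (ex 340, em 450 nm) change over 15 min, room temperature; percent inhibition fitted to 4-parameter Hill equation.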

[2] = Primary qHTS for small molecule stabilizers of the endoplasmic reticulum resident proteome: Secreted ER Calcium Modulated Protein (SERCaMP) assay (AID 1508630); settings: SH-SY5Y GLuc-SERCaMP (Gaussia luciferase released on ER calcium loss) secretion, thapsigargin, luminescence; activity change, negative = inhibition: at 38.4 µM (top of the series) unless noted; further: potency means the concentration at half of the fitted maximal effect
Summary of the method: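 The SH-SY5Y reporter protocol was run at 3 concentrations up to 38.3 uM (primary) or 11 concentrations (follow-up): 16 h compound, 100 nM thapsigargin for 4 h, then extracellular luciferase luminescence.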

[3] = biological target: Cytochrome P450 3A4 (Homo sapiens) (UniProt P08684); assay: qHTS Assay for Inhibitors and Substrates of Cytochrome P450 3A4 (AID 884); settings: recombinant CYP3A4, Luciferin-PPXE luminescence; activity change, negative = inhibition: at 57.1 µM (top of the series); further: potency means the concentration at half of the fitted maximal effect; nearly all actives have a fitted effect of over 50% in size
Summary of the method: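 Luminescent readout of luciferin produced by CYP3A4 (20 nM) dealkylation of Luciferin-PPXE, 25 uM (its KM). NADPH-driven reaction ran 60 min at RT after 10 min compound preincubation; data scaled to 57 uM ketoconazole as 100% inhibition.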

[4] = qHTS Assay for Lipid Storage Modulators (AID 1519; calls by dose curve; further: potency means the concentration at half of the fitted maximal effect; on activity change, negative = inhibition: on the % scale 0 is the no-effect control and ±100 the full control effect); settings: Drosophila S3 cells, BODIPY lipid droplet/cell ratio, laser cytometry, cells loaded with oleic acid; activity change, negative = inhibition: at 57.5 µM (top of the series) unless noted
Summary of the method: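 Cells seeded at 5,000 per well were treated with compounds over a concentration series and loaded with oleic acid (400 uM, as added). Lipid droplet fluorescence (488 nm excitation, 500-530 nm channel) was read by laser-scanning cytometry and normalized to 20 uM Triacsin C.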

[5] = biological target: 3',5'-cyclic-AMP phosphodiesterase 4B (Homo sapiens) (UniProt Q07343); assay: qHTS Assay for Inhibitors of PDE-IV (AID 607; active means well fitted activation curve with a large enough effect in the main read-out, with a control signal flat, not every such curve was filed as active; inconclusive means small, poorly fitted or top-dose-only effect, or effect the other way, or a change in a side signal; further: potency means the concentration at half of the fitted maximal effect; on activation (PDE inhibition): % of control where 0% means no effect); settings: HEK293 ACTOne CNG channel cells, membrane potential fluorescence; activation (PDE inhibition): at 22.9 µM (top of the series)
Summary of the method: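 Live HEK293 cells with a modified cyclic nucleotide-gated (CNG) channel report intracellular cAMP via membrane-potential dye fluorescence (ex 535/em 590 nm). Endogenous PDE-IV was targeted. Compounds were tested at up to 22.9 uM final; RO 20-1724 100 uM served as control.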

[6] = biological target: Cytochrome P450 2C9 (Homo sapiens) (UniProt P11712); assay: qHTS Assay for Inhibitors and Substrates of Cytochrome P450 2C9 (AID 883); further: potency means the concentration at half of the fitted maximal effect; nearly all actives have a fitted effect of over 60% in size
Summary of the method: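 A luminogenic readout tracked human CYP2C9 (10nM) converting deoxyluciferin (100uM, at KM) in 25mM KPO4 during 60 min at 37C with regenerated NADPH. Values normalized to 57uM sulphaphenazole as complete inhibition.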

[7] = biological target: Ubiquitin carboxyl-terminal hydrolase 1 (Homo sapiens) (UniProt O94782); assay: Inhibitors of USP1/UAF1: Pilot qHTS (AID 504865); further: potency means the concentration at half of the fitted maximal effect;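 further: rhodamine fluorescence freed from ubiquitin-rhodamine substrate followed over time; nearly all actives have a fitted effect of over 35% in size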
Summary of the method: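 In 50mM HEPES pH 7.8 containing 0.5mM EDTA, 1mM TCEP, 0.1 mg/ml BSA and 0.01% Tween-20, 1nM USP1/UAF1 is exposed to compound for 15 min, then Ub-Rho (150nM final) is added and fluorescence is read over time.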

[8] = AP1 Signaling Pathway (AID 357; active means well fitted curve in either direction with a large enough effect, not every such curve was filed as active; inconclusive means small, poorly fitted or top-dose-only effect, or another doubt;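 further: ME-180 reporter cells stimulated with EGF at its EC50 level; top concentration of the series differs between compounds; on the % scale 0 is the no-effect control and ±100 the full control effect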); settings: ME-180 (cervical carcinoma) AP-1-bla reporter, EGF-induced, beta-lactamase ratio, 5 h
Summary of the method: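 Titration-series screen for positive or negative modulators of EC50 EGF-induced signaling in ME-180 cells carrying an AP-1-driven beta-lactamase reporter. After 5 hours at 37 degrees Celsius, CCF4 460nm/530nm emission ratio gave %Activity; AC50 values derived.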

[9] = NFAT Signaling Pathway (AID 444; active means well fitted curve in either direction with a large enough effect, not every such curve was filed as active; inconclusive means small, poorly fitted or top-dose-only effect, or another doubt;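 further: carbachol stimulus at about its EC50 of 1 µM final; on the % scale 0 is the no-effect control and ±100 the full control effect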); settings: Jurkat NFAT-bla M1, carbachol, beta-lactamase ratio, 5 h
Summary of the method: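 Jurkat cells carrying an NFAT-driven β-lactamase reporter and co-transfected muscarinic M1 receptor were treated with compound plus carbachol (1 uM final, an EC50 level) for 5 h at 37 °C. CCF4 loading followed for 1 h at RT; 460/530 nm ratio gave %activity.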

[10] = biological target: Mitogen-activated protein kinase 10 (Mus musculus) (UniProt Q61831); assay: JNK3 AlphaScreen Assay (AID 530; active means well fitted curve in either direction with a large enough effect, not every such curve was filed as active; inconclusive means small, poorly fitted or top-dose-only effect, or another doubt;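 further: kinase came from lysate of stimulated human HepG2 cells; signal reports phosphorylation of biotinylated GST-cJun 1-79 at Ser73 with 10 µM ATP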; further: potency means the concentration at half of the fitted maximal effect); settings: JNK3 lysate, c-Jun phosphorylation; activity change, negative = inhibition: at 57.1 µM (top of the series)
Summary of the method: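 Biotinylated GST-cJun(1-79) served as substrate for JNK3 in HepG2 lysates stimulated with IL-1beta and TNF-alpha. ATP was 10 uM final, pH 7.6. Ser73 phosphorylation was quantified by AlphaScreen (680 nm excitation).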

[11] = qHTS Assay for Identification of Small Molecule Antagonists for NFkB Signaling Pathway (AID 895; active means well fitted inhibition curve with a large enough effect in the signal ratio, with a control signal flat, not every such curve was filed as active; inconclusive means small, poorly fitted or top-dose-only effect, or effect the other way, or a change in a side signal; the % refers to the signal ratio; further: on the % scale 0 is the no-effect control and ±100 the full control effect); settings: NFkB beta-lactamase reporter cells, FRET ratio 460/530, stimulated with 10 pM TNF alpha; activity change, negative = inhibition: at 38.3 µM (top of the series)
Summary of the method: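 NFkB-bla ME-180 cervical carcinoma cells with beta-lactamase reporter under NFkB response element; compounds added, then TNF alpha at 10 pM final (EC50), 5 h at 37 C. LiveBLAzer substrate 2 h, room temperature; emission 460/530 nm at 405 nm excitation.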

[12] = qHTS Assay for Identification of Small Molecule Antagonists for Thrombopoietin (TPO) Signaling Pathway (AID 918); settings: TPO-dependent cell signaling reporter, antagonist mode; activity change, negative = inhibition: at 38.5 µM (top of the series); further: nearly all actives have a fitted effect of over 60% in size
Summary of the method: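 Antagonist mode at EC50 TPO (26 pM) in IL-3-free medium; murine Ba/F3 cells with human TPO receptor and GPIIb-promoter luciferase, 24 hrs at 37 C before luminescent detection.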

[13] = biological target: Rap guanine nucleotide exchange factor 3 (Homo sapiens) (UniProt O95398); assay: Confirmatory qHTS for antagonist of cAMP-regulated guanine nucleotide exchange factor 3 (EPAC1) (AID 1645880); settings: EPAC1 Rap1B-BODIPY-GDP exchange, fluorescence; activity, negative = inhibition: at 115 µM (top of the series); further: potency means the concentration at half of the fitted maximal effect; nearly all actives have a fitted effect of over 55% in size
Summary of the method: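 Released BODIPY-GDP fluoresces less than Rap1-bound BODIPY-GDP; the signal is followed at 480/540 nm at 5-min intervals over 30 min, after 5 min at room temperature. Reactions contain 100 nM EPAC1, 250 nM RAP1B-BODIPY-GDP and 50 uM GDP; results are normalized to ATA and DMSO.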

[14] = biological target: Rap guanine nucleotide exchange factor 4 (Homo sapiens) (UniProt Q8WZA2); assay: Confirmatory qHTS for antagonist of cAMP-regulated guanine nucleotide exchange factor 4 (EPAC2) (AID 1645885); settings: activity change, negative = inhibition: at 12.7 µM (top of the series) unless noted; further: potency means the concentration at half of the fitted maximal effect; nearly all actives have a fitted effect of over 25% in size
[15] = Primary qHTS for inhibitors of nuclear receptor binding SET domain protein 2 (NSD2) in an isogenic RCH-ACV NSD2 p.E1099K mutant (9B) (AID 1645876); further: on the % scale 0 is the no-effect control and ±100 the full control effect; nearly all actives have a fitted effect of over 70% in size
[16] = Primary qHTS for inhibitors of nuclear receptor binding SET domain protein 2 (NSD2) in an RCH-ACV wild type WT cells (2C) (AID 1645877); further: on the % scale 0 is the no-effect control and ±100 the full control effect; nearly all actives have a fitted effect of over 70% in size
[17] = biological target: DNA repair nuclease/redox regulator APEX1 (Homo sapiens) (UniProt P27695); assay: Confirmation qHTS Assay for Inhibitors of the Human Apurinic/apyrimidinic Endonuclease 1 (APE1) (AID 2572);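 further: fluorescence gain from purified APE1 cutting a TAMRA/BHQ-2 THF abasic duplex; on the % scale 0 is the no-effect control and ±100 the full control effect; nearly all actives have a fitted effect of over 30% in size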
Summary of the method: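 APE1 endonuclease activity was assessed as fluorescence released when the enzyme nicked a quenched abasic-site duplex (50 nM final). Compounds were preincubated with enzyme 15 min at room temperature before substrate addition.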

[18] = biological target: Cytochrome P450 1A2 (Homo sapiens) (UniProt P05177); assay: p450-cyp1a2 (AID 410; calls by dose curve; further: potency means the concentration at half of the fitted maximal effect)
Summary of the method: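 Read-out is luminescence from luciferin produced by CYP1A2 demethylation of Luciferin-ME (100uM, at Km). Detection reagent stopped the 60 min NADPH-dependent reaction; signals were normalized to 57 uM furafylline.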
Tags describe the fitted curve by direction and shape.

Chain of UniProt Q07343 (Q07343 whole entry, looked up): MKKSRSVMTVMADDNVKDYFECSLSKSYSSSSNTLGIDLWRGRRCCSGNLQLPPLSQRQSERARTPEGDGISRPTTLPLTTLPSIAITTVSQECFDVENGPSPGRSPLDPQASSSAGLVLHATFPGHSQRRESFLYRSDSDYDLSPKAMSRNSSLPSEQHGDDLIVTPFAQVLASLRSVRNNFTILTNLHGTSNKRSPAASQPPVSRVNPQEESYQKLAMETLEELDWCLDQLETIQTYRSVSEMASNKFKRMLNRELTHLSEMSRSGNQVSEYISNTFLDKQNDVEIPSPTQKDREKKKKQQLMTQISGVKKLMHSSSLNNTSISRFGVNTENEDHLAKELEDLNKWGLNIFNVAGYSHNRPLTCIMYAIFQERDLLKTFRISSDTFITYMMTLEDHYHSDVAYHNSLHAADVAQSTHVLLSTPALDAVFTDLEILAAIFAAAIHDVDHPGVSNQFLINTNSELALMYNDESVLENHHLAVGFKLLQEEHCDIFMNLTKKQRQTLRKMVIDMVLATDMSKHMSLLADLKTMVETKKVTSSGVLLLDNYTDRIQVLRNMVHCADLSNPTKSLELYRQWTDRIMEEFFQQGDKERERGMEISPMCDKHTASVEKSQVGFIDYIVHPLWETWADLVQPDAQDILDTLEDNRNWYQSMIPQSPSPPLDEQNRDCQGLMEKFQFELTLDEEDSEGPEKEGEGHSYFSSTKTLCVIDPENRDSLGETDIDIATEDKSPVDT
Chain of UniProt O94782 (O94782 whole entry, looked up): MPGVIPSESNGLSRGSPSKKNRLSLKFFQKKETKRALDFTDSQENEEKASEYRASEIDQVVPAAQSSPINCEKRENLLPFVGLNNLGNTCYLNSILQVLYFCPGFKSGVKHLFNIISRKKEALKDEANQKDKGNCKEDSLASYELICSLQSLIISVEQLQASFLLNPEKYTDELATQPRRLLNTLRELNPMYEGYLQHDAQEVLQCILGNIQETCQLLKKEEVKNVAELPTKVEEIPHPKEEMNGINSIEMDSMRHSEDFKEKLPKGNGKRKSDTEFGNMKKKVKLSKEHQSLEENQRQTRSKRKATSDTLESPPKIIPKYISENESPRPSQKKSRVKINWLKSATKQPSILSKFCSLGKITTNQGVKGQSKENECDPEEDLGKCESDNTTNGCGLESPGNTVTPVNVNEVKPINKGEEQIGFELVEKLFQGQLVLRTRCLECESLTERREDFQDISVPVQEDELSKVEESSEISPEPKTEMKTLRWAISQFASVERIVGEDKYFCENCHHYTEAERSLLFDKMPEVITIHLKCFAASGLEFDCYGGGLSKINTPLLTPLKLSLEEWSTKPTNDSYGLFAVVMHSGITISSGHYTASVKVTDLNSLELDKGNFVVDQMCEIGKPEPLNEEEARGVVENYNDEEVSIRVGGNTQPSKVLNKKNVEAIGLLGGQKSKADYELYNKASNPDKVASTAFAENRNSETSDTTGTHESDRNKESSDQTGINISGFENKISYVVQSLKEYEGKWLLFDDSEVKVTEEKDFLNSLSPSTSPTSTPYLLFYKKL
Chain of UniProt P08684 (P08684 whole entry, looked up): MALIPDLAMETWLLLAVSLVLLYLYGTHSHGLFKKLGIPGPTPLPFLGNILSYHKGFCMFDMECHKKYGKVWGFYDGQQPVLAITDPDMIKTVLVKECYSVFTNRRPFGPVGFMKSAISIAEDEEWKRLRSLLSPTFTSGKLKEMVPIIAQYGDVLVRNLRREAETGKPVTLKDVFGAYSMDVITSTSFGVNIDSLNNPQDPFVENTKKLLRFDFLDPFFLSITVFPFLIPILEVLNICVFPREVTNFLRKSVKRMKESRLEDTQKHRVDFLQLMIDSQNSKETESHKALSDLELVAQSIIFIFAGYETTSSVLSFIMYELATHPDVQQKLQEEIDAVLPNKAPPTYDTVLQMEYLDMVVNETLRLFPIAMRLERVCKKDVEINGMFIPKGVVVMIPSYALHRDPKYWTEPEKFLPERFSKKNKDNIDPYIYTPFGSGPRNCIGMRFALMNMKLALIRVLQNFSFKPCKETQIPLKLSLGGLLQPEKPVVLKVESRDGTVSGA
Chain of UniProt P11712 (P11712 whole entry, looked up): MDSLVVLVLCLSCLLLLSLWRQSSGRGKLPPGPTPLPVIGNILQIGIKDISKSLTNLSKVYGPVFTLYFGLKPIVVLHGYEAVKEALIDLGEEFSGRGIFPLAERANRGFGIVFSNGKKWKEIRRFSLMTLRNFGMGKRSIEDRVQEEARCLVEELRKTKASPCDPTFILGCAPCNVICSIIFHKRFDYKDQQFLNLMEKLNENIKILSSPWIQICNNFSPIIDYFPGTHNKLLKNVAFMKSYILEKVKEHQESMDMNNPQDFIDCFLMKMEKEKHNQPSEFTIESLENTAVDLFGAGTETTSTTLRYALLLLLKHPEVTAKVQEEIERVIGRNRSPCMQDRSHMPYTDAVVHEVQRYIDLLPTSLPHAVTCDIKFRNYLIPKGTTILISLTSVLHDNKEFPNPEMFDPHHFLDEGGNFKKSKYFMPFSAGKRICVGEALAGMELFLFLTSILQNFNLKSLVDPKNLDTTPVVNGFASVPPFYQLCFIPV
Chain of UniProt P05177 (P05177 whole entry, looked up): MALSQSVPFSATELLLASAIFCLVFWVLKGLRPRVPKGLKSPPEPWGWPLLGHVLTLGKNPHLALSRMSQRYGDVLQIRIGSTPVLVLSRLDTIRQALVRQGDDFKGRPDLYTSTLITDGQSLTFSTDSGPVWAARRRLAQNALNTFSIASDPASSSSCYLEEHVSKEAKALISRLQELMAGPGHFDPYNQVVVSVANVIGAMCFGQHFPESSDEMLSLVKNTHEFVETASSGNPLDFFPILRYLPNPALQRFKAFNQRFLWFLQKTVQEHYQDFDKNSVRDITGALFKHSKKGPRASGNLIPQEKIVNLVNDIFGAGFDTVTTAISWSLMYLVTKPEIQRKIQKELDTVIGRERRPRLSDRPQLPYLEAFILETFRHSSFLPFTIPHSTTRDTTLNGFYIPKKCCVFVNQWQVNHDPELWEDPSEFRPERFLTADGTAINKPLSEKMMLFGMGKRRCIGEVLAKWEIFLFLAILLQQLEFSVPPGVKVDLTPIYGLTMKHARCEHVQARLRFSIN
Chain of UniProt Q8WZA2 (Q8WZA2 whole entry, looked up, the tested form may be a part): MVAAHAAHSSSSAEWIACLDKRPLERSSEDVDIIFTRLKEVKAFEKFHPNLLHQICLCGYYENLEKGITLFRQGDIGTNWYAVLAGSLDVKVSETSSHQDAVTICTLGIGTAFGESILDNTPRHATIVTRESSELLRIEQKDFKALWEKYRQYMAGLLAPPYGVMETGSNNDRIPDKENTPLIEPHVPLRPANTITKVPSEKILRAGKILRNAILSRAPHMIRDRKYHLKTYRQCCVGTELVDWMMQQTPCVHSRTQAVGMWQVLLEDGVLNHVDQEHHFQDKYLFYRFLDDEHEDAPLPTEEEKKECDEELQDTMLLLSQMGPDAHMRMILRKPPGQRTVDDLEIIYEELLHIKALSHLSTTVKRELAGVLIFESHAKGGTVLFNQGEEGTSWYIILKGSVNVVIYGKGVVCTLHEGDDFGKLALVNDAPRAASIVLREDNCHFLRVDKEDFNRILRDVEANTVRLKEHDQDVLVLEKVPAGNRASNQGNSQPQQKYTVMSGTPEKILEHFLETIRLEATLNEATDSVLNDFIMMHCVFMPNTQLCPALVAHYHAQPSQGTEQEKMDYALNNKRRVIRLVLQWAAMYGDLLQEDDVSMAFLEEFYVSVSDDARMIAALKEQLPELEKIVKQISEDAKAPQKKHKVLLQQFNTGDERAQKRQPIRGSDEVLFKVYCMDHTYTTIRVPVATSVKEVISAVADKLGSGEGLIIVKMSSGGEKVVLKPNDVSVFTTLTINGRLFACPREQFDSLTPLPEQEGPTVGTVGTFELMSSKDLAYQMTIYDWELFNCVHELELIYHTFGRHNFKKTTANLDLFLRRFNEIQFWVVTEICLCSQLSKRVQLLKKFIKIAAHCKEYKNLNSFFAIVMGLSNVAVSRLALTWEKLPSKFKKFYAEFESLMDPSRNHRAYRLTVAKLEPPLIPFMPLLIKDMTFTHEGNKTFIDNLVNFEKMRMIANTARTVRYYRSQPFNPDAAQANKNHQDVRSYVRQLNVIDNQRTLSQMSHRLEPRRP
Chain of UniProt P27695 (P27695 whole entry, looked up): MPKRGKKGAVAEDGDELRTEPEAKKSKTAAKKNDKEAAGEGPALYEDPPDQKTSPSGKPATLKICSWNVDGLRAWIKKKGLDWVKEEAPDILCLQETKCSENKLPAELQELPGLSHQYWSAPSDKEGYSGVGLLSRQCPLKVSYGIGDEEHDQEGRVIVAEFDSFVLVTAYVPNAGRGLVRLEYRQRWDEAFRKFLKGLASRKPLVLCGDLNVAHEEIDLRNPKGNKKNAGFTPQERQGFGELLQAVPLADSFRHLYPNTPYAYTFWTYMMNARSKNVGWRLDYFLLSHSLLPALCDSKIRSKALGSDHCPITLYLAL

CS(=O)(=O)c1ccc(-c2nc(-c3ccc(F)cc3)c(-c3ccncc3)[nH]2)cc1
Potency [1]: inconclusive: 3.16 µM [inhibitor, partial curve] | Potency [2]: inconclusive: 35.5 µM [inhibitor, single point]

CC1NC(C(=O)O)Cc2c1[nH]c1ccccc21 (stereo not given)
Potency [1]: inconclusive: 37.7 µM [inhibitor, single point]

CC/C=C\C/C=C\C/C=C\CCCCCCCCCCCC(=O)O
activity change, negative = inhibition [1]: inactive: -2.15% [at 6.83 µM]

CCc1cc(C(C)=O)c(O)cc1OCCCCCC(C)(C)c1nn[nH]n1
Potency [3]: active: 10 µM | Potency [1]: inconclusive: 23.8 µM [inhibitor, partial curve] | Potency [2]: inconclusive: 1.12 µM [inhibitor, full curve]

CC(=O)NCC(=O)N[C@H](CCC(=O)O)C(=O)O (Ac-Gly-[dE]-OH)
Potency [4]: inactive | Potency [1]: inactive

CN(CC[C@@H](Oc1ccc(-c2ccccc2)cc1)c1ccc(F)cc1)CC(=O)O
Potency [5]: inconclusive: 19 µM [inhibitor, single point] | Potency [6]: active: 2.51 µM | Potency [7]: inconclusive: 50.1 µM [inhibitor, partial curve, poor fit] | Potency [1]: inactive | Potency [2]: inconclusive: 31.6 µM [inhibitor, partial curve, poor fit]

CN1CCN2c3ccccc3Cc3ccccc3[C@@H]2C1
activity change, negative = inhibition ([8]; at 17.2 µM (top of the series)): inconclusive: 51.4% [activator] | activity change, negative = inhibition ([8]; at 38 µM (top of the series)): inconclusive: 49.1% [activator] | activity change, negative = inhibition ([9]; at 17.2 µM (top of the series)): inconclusive: -42.3% [inhibitor] | activity change, negative = inhibition ([9]; at 38 µM (top of the series)): inconclusive: -25.9% [inhibitor] | Potency [10]: inconclusive: 2.51 nM [inhibitor, full curve, poor fit] and inconclusive: 158 nM [activator, full curve, poor fit] | Potency [5]: inactive and inconclusive: 3.79 µM [activator, partial curve, poor fit] | Potency [11]: inactive | activity change, negative = inhibition [12]: inconclusive: -12.7% [phenotype inactive] | Potency [1]: inactive | Potency [2]: inconclusive: 28.2 µM [inhibitor, single point]

COc1cc(OC)c2cc(-c3ccncc3)cnc2c1
Potency [3]: inconclusive: 0.316 µM [inhibitor, full curve] | Potency [7]: inconclusive: 63.1 µM [inhibitor, partial curve, poor fit] | Potency [1]: active: 21.2 µM | Potency [2]: inconclusive: 28.2 µM [inhibitor, single point]

N#C/C(=C\c1ccc(O)c(O)c1)C(=O)OCCc1cccs1
Potency [10]: inconclusive: 20 µM [inhibitor, partial curve] | Potency [4]: inconclusive: 14.1 µM [rising, partial curve] | Potency [7]: inconclusive: 28.2 µM [inhibitor, partial curve] | Potency [1]: inconclusive: 2.12 µM [inhibitor, full curve] | Potency [13]: active: 12.5 µM | Potency [14]: inconclusive: 44.1 µM [inhibitor, partial curve]

N[C@@H](C(=O)O)c1ccc(C(=O)O)c(O)c1
activity change, negative = inhibition [4]: inconclusive: 2.99% | Potency [1]: active: 23.8 µM | Potency [2]: inconclusive: 31.6 µM [inhibitor, partial curve, poor fit]

N[C@@H](C(=O)O)c1ccc(O)c(C(=O)O)c1
activity change, negative = inhibition [4]: inconclusive: 2.69% | Potency [1]: inconclusive: 21.2 µM [inhibitor, partial curve]

COc1cc(/C=C(\C#N)C(N)=O)cc(CSc2nc3ccccc3s2)c1O
Potency [10]: inconclusive: 31.6 µM [inhibitor, partial curve, poor fit] | Potency [7]: inconclusive: 31.6 µM [inhibitor, full curve] | Potency [1]: inconclusive: 21.2 µM [inhibitor, single point] and inconclusive: 26.7 µM [inhibitor, partial curve] | Potency [2]: inactive | Potency [15]: inactive | Potency [16]: inactive

C[C@@]1(C(=O)O)NCCc2cc(O)c(O)cc21
activity change, negative = inhibition [10]: inconclusive: -73.1% | Potency [17]: inactive | Potency [7]: active: 56.2 µM | Potency [1]: active: 11.9 µM | Potency [2]: inconclusive: 2 µM [inhibitor, full curve, poor fit]

CN=C1N[C@H](c2ccccc2)N(c2ccccc2)S1
Potency [5]: inconclusive: 19 µM [activator, partial curve, poor fit] | Potency [7]: inactive | Potency [1]: inconclusive: 42.3 µM [inhibitor, partial curve, poor fit] | Potency [2]: inactive

CCCC[P+](CCCC)(CCCC)Cc1ccc(NC(=O)[C@@H](Cc2ccc3ccccc3c2)NC(=NC2CCCCC2)NC2CCCCC2)cc1
Potency [10]: inconclusive: 0.0251 µM [activator, full curve] | Potency [5]: inconclusive: 19 µM [inhibitor, partial curve] | activity change, negative = inhibition [4]: inconclusive: -53.4% | Potency [7]: inconclusive: 56.2 µM [inhibitor, partial curve] | Potency [1]: inconclusive: 29.9 µM [inhibitor, single point] | Potency [2]: inactive

CCCCCCCCCCCCCCC[C@@H](O)[C@@H](N)CO
Potency [18]: active: 25.1 µM | Potency [4]: inconclusive: 28.2 µM [inhibitor, partial curve, poor fit] | Potency [7]: active: 31.6 µM | Potency [1]: inactive | Potency [2]: inconclusive: 3.16 µM [inhibitor, partial curve, poor fit]
